Test results as given in PubChem BioAssay AID488969 (Vanderbilt High Throughput Screening Facility, 2010).
Whole data set: some 110,000 compounds, median “z-score” near -0.1, cut for the highest 2% near 2. The list shows a part of the results. Calls of active or inactive are those of the source.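 Rule for the calls: active = z-score in the third read window above 3 or below -3; inactive = the rest.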

The molecules below were run against Metabotropic glutamate receptor 8 (Rattus norvegicus) (UniProt P70579) (assay: mGluR8 Gi/Go-coupled signaling modulation – cell-based, rat, thallium flux, HTS, primary screen (AID 488969)). Settings: HEK293 rat mGluR8, GIRK (G protein-gated inwardly rectifying potassium channel) thallium flux, FluoZin2; at 10 µM; stronger effect = higher value; submaximal glutamate (EC20) added with thallium.
Chain of UniProt P70579 (P70579 whole entry, looked up): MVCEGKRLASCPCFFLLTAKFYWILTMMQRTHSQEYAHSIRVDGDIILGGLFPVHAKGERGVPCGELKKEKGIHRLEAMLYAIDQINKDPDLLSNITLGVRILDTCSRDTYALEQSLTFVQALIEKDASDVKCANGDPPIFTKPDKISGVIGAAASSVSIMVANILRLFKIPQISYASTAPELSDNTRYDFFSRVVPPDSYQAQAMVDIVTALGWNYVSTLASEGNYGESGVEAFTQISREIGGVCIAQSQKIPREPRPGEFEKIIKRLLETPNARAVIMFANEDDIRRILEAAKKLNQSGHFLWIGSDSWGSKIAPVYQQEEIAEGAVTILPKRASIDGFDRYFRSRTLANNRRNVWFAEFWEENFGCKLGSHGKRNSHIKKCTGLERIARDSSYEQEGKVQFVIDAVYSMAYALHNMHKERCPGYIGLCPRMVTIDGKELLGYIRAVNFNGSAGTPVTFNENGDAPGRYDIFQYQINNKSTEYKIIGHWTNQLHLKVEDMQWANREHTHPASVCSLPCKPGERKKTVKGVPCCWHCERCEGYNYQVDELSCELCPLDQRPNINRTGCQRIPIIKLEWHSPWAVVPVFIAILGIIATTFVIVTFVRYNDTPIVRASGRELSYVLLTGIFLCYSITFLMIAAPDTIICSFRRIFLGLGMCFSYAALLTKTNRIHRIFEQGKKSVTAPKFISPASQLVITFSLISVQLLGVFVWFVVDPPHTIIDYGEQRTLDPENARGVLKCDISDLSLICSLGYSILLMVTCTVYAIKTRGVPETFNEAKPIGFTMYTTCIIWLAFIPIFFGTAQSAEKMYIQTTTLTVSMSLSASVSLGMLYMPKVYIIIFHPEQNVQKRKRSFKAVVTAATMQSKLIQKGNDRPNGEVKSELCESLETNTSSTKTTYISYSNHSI

| SMILES | z-score |
| --- | --- |
| Cc1ccc(CNC(=O)c2cc3c(-c4ccc(Cl)cc4)nn(C)c3s2)o1 | -0.335 |
| COc1cccc(NC(=O)COc2ccc(N3CC(C(=O)NCC(C)C)CC3=O)cc2)c1 (configuration not stated) | 1.32 |
| Cc1nn(CCCC(=O)NCc2ccc(F)cc2)c(C)c1[N+](=O)[O-] | -0.182 |
| O=C(C1CCCN(S(=O)(=O)c2cnc[nH]2)C1)N1CCN(Cc2ccccc2)CC1 (configuration not stated) | 0.522 |
| CCCCOC(=O)Nc1ccc(C(=O)OCCC)cc1 | active: 3.09 |
| COc1ccc(C2=NOC(C(=O)Nc3cc(C)on3)C2)cc1 (configuration not stated) | -0.0706 |
| COc1ccc(/C=C2\NC(=S)N(CC3CCCO3)C2=O)c(OC)c1 (configuration not stated) | 0.39 |
| O=C(NCC1CCCCC1)c1ccco1 | -0.427 |
| C=CCn1c(SCC(=O)Nc2ccccc2OC)nnc1-c1ccco1 | -0.908 |
| COc1ccc(-n2nnnc2SCC(=O)Nc2nc3c(s2)CCCC3)cc1 | -0.483 |
| COC(=O)c1c(NC(=O)CSc2nnnn2-c2ccccc2)sc2c1CCC(C(C)(C)C)C2 (configuration not stated) | -0.586 |
| O=C(Cc1cccc2ccccc12)Nc1nc(-c2cccc([N+](=O)[O-])c2)cs1 | -0.19 |
| Cc1ccc2[nH]c(=O)c3cc(C(=O)N(CCCOC(C)C)Cc4ccco4)sc3c2c1 | -0.0585 |
| COc1ccc(N2CCN(C(=O)CCCn3c(=O)[nH]c4cc(Cl)ccc4c3=O)CC2)cc1 | -0.308 |
| Cc1ccc(C)c2[nH]c(=O)c(CCNC(=O)C(C)(C)C)cc12 | 0.538 |
| CCn1c(NCc2cc(Br)ccc2NS(=O)(=O)c2ccc(C)cc2)nc2ccccc21 | -0.0838 |
| Nc1nc(-c2ccco2)nn1C(=O)CCc1ccccc1 | -0.219 |
| CCCCn1c(CNC(=O)CCC)nc2ccccc21 | -0.174 |
| CCOc1cc(S(=O)(=O)N2CCN(Cc3ccccc3)CC2)ccc1Br | 0.445 |
| CCOc1ccccc1NC(=O)CN(Cc1ccccc1)S(C)(=O)=O | 0.176 |
| Cc1cc2c(c(=O)n1Cc1ccco1)C(c1ccccc1)C(C#N)=C(N)O2 (configuration not stated) | 0.255 |
| COc1ccccc1N1CCN(C(=O)c2cccc(N3C(=O)NC4CC3(C)Oc3ccccc34)c2)CC1 (configuration not stated) | -0.212 |

| SMILES | z-score |
| --- | --- |
| Cc1cccc(NC(=O)CN2NS(=O)(=O)c3ccccc3C2=O)c1 | 0.0291 |
| Cc1ccc(F)cc1NC(=O)c1cccc(N(C)C)c1 | -0.421 |
| COc1ccc(NC(=O)c2c(F)c(F)c(F)c(F)c2F)cc1Cl | -0.25 |
| Cc1nc(-c2cccc(NC(=O)c3cc4cc(Br)ccc4oc3=O)c2)cs1 | -0.0458 |
| CCOc1ccc(CCNC(=O)C2CCCN(C(=O)N(C)C)C2)cc1OCC (configuration not stated) | -0.88 |
| CCOC(=O)C(=CNc1cccc(C)c1C)C(=O)OCC | -0.999 |
| C/C(=N\NC(=O)COc1ccc(C(C)(C)C)cc1)c1ccc2c(c1)OCCO2 | -0.171 |
| Cc1cc2nc(CCN(Cc3cccnc3)C(=S)Nc3ccccc3)[nH]c2cc1C | 0.259 |
| Cc1c(NC(=O)C2C3C=CC(C3)C2C(=O)O)c(=O)n(-c2ccccc2)n1C (configuration not stated) | 0.15 |
| O=C(CCSc1ccccn1)Nc1ccc(Br)cc1 | 1.4 |
| Cc1ncc([N+](=O)[O-])n1CCOC(=O)NC(NCc1ccccc1Cl)C(Cl)(Cl)Cl (configuration not stated) | -0.331 |
| CCOc1ccc2nc(NC(=S)N(C)C)sc2c1 | -0.436 |
| COc1ccc(NC2=C(Cl)C(=O)N(CCc3ccccc3)C2=O)cc1 | 1.27 |
| COc1ccccc1N1CCN(C(=O)c2cc(-c3cccc(Cl)c3)on2)CC1 | 0.0644 |
| COC(=O)c1sc2nc(N)c(C#N)cc2c1N | -0.176 |
| CCCCCn1c(CN2CCN(C(=O)OCC)CC2)nc2c1c(=O)n(C)c(=O)n2C | 0.133 |
| CCN(CC)C(=O)CSc1nnc(-c2ccco2)n1N | -0.108 |
| Cc1ccc(CSCC(=O)N2CCOCC2)cc1 | -0.102 |
| COC(=O)C1C(=O)C2=C(CC1C)NC(C)=C(C(=O)OC1CCCCC1)C2c1ccc(N(C)C)cc1 (configuration not stated) | 0.0832 |
| Cc1ccc(C)c(NC(=O)CCC(=O)NNC(=O)C(c2ccccc2)c2ccccc2)c1 | -0.193 |
| CC(C)(C)n1nnnc1C(c1cccnc1)N(Cc1ccccc1)Cc1cccs1 (configuration not stated) | 0.191 |
| CCCNC(=O)CCc1cc(C(C)(C)C)c(O)c(C(C)(C)C)c1 | -0.319 |

| SMILES | z-score |
| --- | --- |
| CCn1c(O)c(/C=C2\C=NN=C2c2ccc(C)cc2)sc1=S | 0.0782 |
| CN(CCO)C(=O)CCC(=O)Nc1ccc(S(N)(=O)=O)cc1 | 0.00817 |
| CCOc1ccc(S(=O)(=O)Nc2cccc(Cl)c2)cc1 | 0.395 |
| O=C(Nc1cccc(C(F)(F)F)c1)c1cccnc1NCCc1ccccc1 | -0.14 |
| CN(C)c1nc(NCc2ccccc2)nc(N/N=C/c2ccc(Cl)cc2Cl)n1 | 0.245 |
| Cc1cc(Nc2ccc3c(c2)OCCO3)c2ccccc2n1 | 0.143 |
| O=C(O)CN1C(=O)c2ccc(Oc3cccc4c3C(=O)N(CC(=O)O)C4=O)cc2C1=O | 0.0985 |
| CC(C)C(=O)NC(C)C(c1cccs1)N1CCN(C)CC1 (configuration not stated) | 0.199 |
| N#CCCN(C(=O)CSc1ccc2c(c1)OCCO2)c1ccc(F)cc1 | -0.0814 |
| COCCN(C(=S)Nc1ccccc1OC)C(C)c1cccs1 (configuration not stated) | -0.973 |
| CCCc1nc2ccccc2c2nc(N)nn12 | 0.102 |
| CCC(C)Sc1nc2ccccc2n1CC(=O)O (configuration not stated) | -0.147 |
| CCC(=O)Nc1nc2nc(C)cc(=O)n2[nH]1 | -0.0896 |
| O=C(NCc1ccccc1)C(Cc1ccccc1)N1C(=O)C2C3CCC(C3)C2C1=O (configuration not stated) | -0.034 |
| Cc1ccc(NC(=O)NNC(=O)C2CC(c3cccnc3)=NO2)cc1 (configuration not stated) | -0.193 |
| CCCCN(C)CCNC(=O)Cn1c(=O)sc2ccccc21 | 0.251 |
| Cc1ccc(NC(=O)Cn2c(=O)n(CCCCC(=O)NCc3ccco3)c(=O)c3ccccc32)cc1 | -0.29 |
| Cc1nn(CC(O)COc2ccc3c(c2)CCC3)c(C)c1Br (configuration not stated) | 0.344 |
| CCOC(=O)C1=C(C)N=C2SCCC(=O)N2[C@@H]1/C=C/c1ccccc1 | -0.121 |
| O=C(Nc1cccc([N+](=O)[O-])c1)c1ccncc1 | -0.347 |
| Cn1c(=O)c2c(nc(CN3CCc4ccccc4C3)n2Cc2ccc(F)cc2)n(C)c1=O | -0.331 |
| COc1ccc(NC(=O)CSc2nnc(Cn3cnc([N+](=O)[O-])n3)n2C)cc1 | 0.000496 |

| SMILES | z-score |
| --- | --- |
| O=C(N/C=N/OCc1ccc(Cl)cc1Cl)NOCc1c(Cl)cccc1Cl | 1.49 |
| CCCc1[nH]nc2c1C(c1ccc(OC)c(CSC3=NCCS3)c1)C(C#N)=C(N)O2 (configuration not stated) | -1.21 |
| COCC(C)n1c(SCc2nc(N)nc(Nc3ccccc3C)n2)nc2ccccc2c1=O (configuration not stated) | -1.5 |
| CC(C)=C1C2CCC1C(C(=O)NCc1ccccc1)C2C(=O)O (configuration not stated) | -1.01 |
| CCOC(=O)c1ccc(NC(=O)CN(Cc2ccc(Cl)cc2)S(C)(=O)=O)cc1 | 1.64 |
| CCN(CC(=O)NCc1cccs1)C(=O)c1cc(S(=O)(=O)N2CCOCC2)ccc1C | 0.964 |
| O=S(=O)(Nc1nccs1)c1cnc(Cl)c(Br)c1 | 0.908 |
| O=C(N/N=C/c1ccc(N2CCOCC2)c([N+](=O)[O-])c1)c1ccc(F)cc1 | -0.226 |
| CN1CCN(C(=O)c2ccccc2NC(=O)c2cccs2)CC1 | -0.803 |
| Cn1c(CCc2ccccc2)nnc1SCC(=O)N1CCCC1 | -0.39 |
| Oc1ccc2ccccc2c1C=NCc1cn2ccsc2n1 | 1.23 |
| O=C(CCc1ccccc1)Nc1ncn[nH]1 | -0.167 |
| CCN1C(=O)c2ccc(C(=O)NCc3ccc4c(c3)OCO4)cc2C1=O | -1.27 |
| CCOC(=O)c1cc2c(N)c(C(=O)c3cc(C#N)c(SC)nc3C)sc2nc1C | 0.539 |
| O=C(OC1CCOC1=O)c1cc(-c2ccc(Br)cc2)nc2ccccc12 (configuration not stated) | -0.248 |
| Clc1ccc(CSc2nccn2Cc2ccccc2)cc1 | -0.314 |
| COc1ccccc1N1CCN(Cc2cc(Br)c(O)c3ncccc23)CC1 | active: 3.32 |
| C=CCn1c(Br)nc2c1c(=O)[nH]c(=O)n2C | 0.231 |
| COC(=O)c1ccc(N=NNc2ccc(C(=O)OC)cc2)cc1 | -0.0451 |
| CC(=O)c1cccc(NC(=O)N2CCCC2C(=O)Nc2cccc(C)c2)c1 (configuration not stated) | 0.691 |
| COC(=O)c1ccc2c(=O)n(CCO)c(=S)[nH]c2c1 | 0.000255 |
| COc1ccc(C(=O)N2C(=S)NC(=O)/C2=C\c2ccc(C)cc2)cc1 | 2.75 |

| SMILES | z-score |
| --- | --- |
| COc1ccc(-c2nn(-c3ccccc3)cc2/C=N/NC(=O)c2ccc3c(c2)OCO3)cc1 | 0.539 |
| COC(=O)c1ccc(C2/C(=C(/O)c3ccc(OC)cc3)C(=O)C(=O)N2c2cc(C)on2)cc1 (configuration not stated) | -0.603 |
| CN(C)S(=O)(=O)c1cccc(NC(=S)NN=C(Cc2ccccc2)Cc2ccccc2)c1 | 0.673 |
| Cc1cc(C)c(NC(=O)c2cc3c(nc4sccn43)s2)c(C)c1 | 0.0814 |
| Cn1c(=O)oc2cc(S(=O)(=O)N3CCCC(C(=O)Nc4nccs4)C3)ccc21 (configuration not stated) | 0.436 |
| CNC(=O)c1cc(Cl)c(OC)c(OC)c1 | -0.118 |
| CCOc1ccc(CN2CCN(S(=O)(=O)c3ccc(NC(C)=O)cc3)CC2)cc1OC | 0.0915 |
| C=CCOc1ccc(C2C(C(=O)c3ccco3)=C(O)C(=O)N2CCCN(CC)CC)cc1 (configuration not stated) | -0.268 |
| COC(=O)c1cccc(N(C(=O)c2ccco2)C(C(=O)NC2CCCC2)c2ccco2)c1 (configuration not stated) | -0.117 |
| COc1ccc(OC)c(N(CC(=O)Nc2cccnc2)S(C)(=O)=O)c1 | -0.174 |
| COc1ccc(OCC(=O)Nc2cccc(C(=O)Nc3ccccc3C(=O)O)c2)cc1 | -0.957 |
| COCCNC(=O)c1onc(CSc2ccc(C(C)C)cc2)c1C(=O)O | -0.139 |
| CCc1ccc(-n2c(=O)c3c(C)c(C(=O)N(C)C)sc3n(CC(=O)NCc3ccco3)c2=O)cc1 | 0.869 |
| COc1ccc(CNC(=O)COC(=O)C2=COCCO2)cc1 | 0.00886 |
| CC(C)CC(=O)c1c[nH]c(C(=O)NCC2CCCO2)c1 (configuration not stated) | 0.015 |
| O=C1CC(c2cccc(F)c2)SC(N(c2ccccc2)c2ccccc2)=N1 (configuration not stated) | -0.127 |
| Cc1cc(/C=C(\C#N)C(=O)OCC(=O)Nc2ccc(OC(F)F)cc2)c(C)n1CC(C)C | -0.0858 |
| COc1ccc(C)cc1NC(=O)c1nnn(Cc2cc(C)ccc2C)c1N | 0.562 |
| Cc1ccccc1-c1nc(CN2CCC(C(=O)NCc3ccco3)CC2)c(C)o1 | 0.0789 |
